{"source": "PubChem BioAssay AID686978", "about": "(National Center for Advancing Translational Sciences (NCATS), 2013)", "note": "Several values for one entry are separate records, joined by “and”; a condition that tells them apart may be missing. Equal entries are not always repeated. In all, about 420,000 compounds went through this assay and about 64,000 (15%) were called active. Inconclusive results, whose numbers are uncertain, are shown with a selection of clear calls. Calls come from the whole dose curve; as a rule, active = well fitted inhibition curve with a large enough effect; inconclusive = small, poorly fitted or top-dose-only effect; inactive = flat fitted curve, though single readings scatter. Potencies of inconclusive entries are left out as doubtful fits. Potency is the fitted concentration of half-maximal effect; tags give direction and shape of the fitted curve.", "data": [{"experiment": "qHTS for Inhibitors of human tyrosyl-DNA phosphodiesterase 1 (TDP1): qHTS in cells in absence of CPT; note: nearly all actives have a fitted effect of over 55% in size", "conditions": "DT40 Tdp1-/- hTDP1 cells, no CPT, ATP luminescence, 48 h; series mostly up to 46.2 µM", "outline": "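No-CPT arm: Tdp1-/-;hTDP1 DT40 cells (400/well) plus compounds, incubated ≥48 hr at 37 °C. Readout CellTiter-Glo luminescence.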", "values": [{"smiles": "Cc1ccc2ccccc2c1C(O)c1ncc(-c2ccc(F)cc2)[nH]1", "note": "(centres undefined)", "Potency": "inconclusive [inhibitor, single point]"}, {"smiles": "O=C(CSC1=NCCS1)NC(c1ccccc1)c1ccccc1", "Potency": "active: 16.4 µM"}, {"smiles": "C/C(=N\\NC(=O)CCCCCNC(=O)c1ccccc1)c1ccccc1O", "Potency": "inactive"}, {"smiles": "CC(=NNC(=S)N1CCCCCC1)c1ccccn1", "Potency": "active: 0.0164 µM"}, {"smiles": "O=C(NCCc1ccc(Cl)cc1Cl)C1=CC=CN2CCS(=O)(=O)N=C12", "Potency": "inconclusive [inhibitor, single point]"}, {"smiles": "Cc1ccc(OCCOCCOc2ccc(Br)cc2/C=N\\NC(=O)c2ccncc2)cc1", "Potency": "active: 18.4 µM"}, {"smiles": "CCCOc1cccc(-c2cc(C(=O)N/N=C/c3cccnc3)c3ccccc3n2)c1", "Potency": "active: 8.2 µM"}, {"smiles": "CCOC(=O)c1csc(NC(=O)CSc2nnc(C3CC3)n2C)n1", "Potency": "inconclusive [inhibitor, single point]"}, {"smiles": "O=C(O)C(c1ccccc1)C1(O)CC2CCC1C2", "note": "(centres undefined)", "Potency": "inactive"}, {"smiles": "COC(=O)c1ccc(NC(=O)COC(=O)COc2cccc3c2OC(C)(C)C3)cc1", "Potency": "inactive"}, {"smiles": "CCN(CC)C(=O)c1c(-c2ccccc2)c(-c2ccccc2)nn(C)c1=O", "Potency": "inactive"}, {"smiles": "CCC(=O)Nc1cc(-c2nn(C)c(=O)c3ccccc23)ccc1OC", "Potency": "inactive"}, {"smiles": "CC(NC(=O)C1CCN(S(=O)(=O)c2cc([N+](=O)[O-])ccc2Cl)CC1)c1ccccc1", "note": "(centres undefined)", "Potency": "inconclusive [inhibitor, single point]"}, {"smiles": "CC(C)(C)c1ccc(NC(=O)COC(=O)c2ccccc2OCC(=O)Nc2ccc(Br)cc2)cc1", "Potency": "inconclusive [inhibitor, single point]"}, {"smiles": "CCNC(=O)COC(=O)c1[nH]c(C)c(C(=O)OC)c1C", "Potency": "inactive"}, {"smiles": "CCOC(=O)C1=C(c2ccccc2)NC(SCC(=O)Nc2ccccc2C)=C(C#N)C1c1ccco1", "note": "(centres undefined)", "Potency": "inconclusive [inhibitor, single point]"}, {"smiles": "O=C(N[C@@H](Cc1c[nH]c2ccccc12)C(=O)O)OCC1c2ccccc2-c2ccccc21", "Potency": "inactive"}, {"smiles": "COc1ccc2cc(CN(Cc3cccs3)Cc3nnnn3Cc3ccccc3)c(=O)[nH]c2c1", "Potency": "inconclusive [inhibitor, single point]"}, {"smiles": "CC(=O)c1sc(NC(=O)C2(F)C(F)(F)C(F)(F)C(F)(F)C(F)(F)C2(F)F)nc1C", "Potency": "active: 5.8 µM"}, {"smiles": "CSc1ccccc1NC(=O)c1ccc(N2CCCC2=O)cc1", "Potency": "inactive"}, {"smiles": "NC(=O)NNc1ncc(C(F)(F)F)cc1Cl", "Potency": "inactive"}, {"smiles": "C[N+](C)(C)c1ccc(/C=C2\\C=Cc3ccccc32)cc1", "Potency": "inconclusive [inhibitor, single point]"}, {"smiles": "CSc1nnc(CNC(=O)C23CC4CC(CC(C4)C2)C3)n1Cc1ccccc1", "Potency": "inconclusive [inhibitor, single point]"}, {"smiles": "CCOC(=O)N1CCN(C(=O)c2ccc3c(c2)sc2nc(-c4ccccc4)cn23)CC1", "Potency": "inconclusive [inhibitor, single point]"}, {"smiles": "CC(C)(C)c1ccc(-c2conc2N)cc1", "Potency": "inconclusive [inhibitor, partial curve]"}, {"smiles": "COc1ccc(N2CCN(C(=O)CCn3nc(C)c(S(=O)(=O)N4CCCC4)c3C)CC2)cc1", "Potency": "inconclusive [inhibitor, partial curve]"}, {"smiles": "O=C(NCc1cccnc1)c1ccc(COc2ccccc2Br)cc1", "Potency": "inconclusive [inhibitor, single point]"}, {"smiles": "COC(=O)c1ccc(/C=C/c2ccc3cccc(OC)c3n2)cc1", "Potency": "inconclusive [inhibitor, single point]"}, {"smiles": "O=C(NCCc1cccc(Cl)c1)c1cccs1", "Potency": "inactive"}, {"smiles": "Cc1nc2ccccc2nc1SCC(=O)N1CCC(C)CC1", "Potency": "inconclusive [inhibitor, single point]"}, {"smiles": "CCCc1cc(=O)[nH]c(Nc2ccc3c(c2)OCCO3)n1", "Potency": "inactive"}, {"smiles": "O=C(CSc1nnc(-c2cccs2)o1)Oc1ccccc1", "Potency": "inactive"}, {"smiles": "CC(C)(C)CC(C)(C)N=C1Nc2cc(Cl)c(Cl)cc2N[C@]12C[C@H]1CCCC(=O)N3CC[C@@H](C2)[C@@H]13", "Potency": "active: 11.2 µM"}, {"smiles": "c1ccc(-c2nc3ccccc3nc2N2CCOCC2)cc1", "Potency": "inconclusive [inhibitor, partial curve, poor fit]"}, {"smiles": "CCCN1C(=O)CN(C2CCCCCC2)C(=O)C1c1ccc(C)cc1", "note": "(centres undefined)", "Potency": "inconclusive [inhibitor, single point]"}, {"smiles": "CC(C)CCn1c(SCC(=O)NC2CC2)nc2cc(Cl)ccc2c1=O", "Potency": "inactive"}, {"smiles": "O=C(N1CCN=C1SCc1cccnc1)C12CC3CC(CC(C3)C1)C2", "Potency": "active: 14.6 µM"}, {"smiles": "OCC[C@@H]1C[C@@H](O)[C@H](O)[C@@]2(CCc3ccccc3CO2)O1", "Potency": "inactive"}, {"smiles": "Cc1ccc(C)c(SCc2noc(C(=O)NC(C)C)c2C(=O)O)c1", "Potency": "inconclusive [inhibitor, partial curve]"}, {"smiles": "CCC(C)Sc1cc(-c2nc3ccc(C)cn3c2NCc2ccccc2)ccc1OC", "note": "(centres undefined)", "Potency": "active: 18.7 µM and active: 4.11 µM"}, {"smiles": "Oc1ccc2ccccc2c1-c1sc(Nc2ccccc2)n[n+]1-c1ccc(F)cc1", "Potency": "active: 16.4 µM"}, {"smiles": "CCN(CC)C(C)C(=O)Nc1c2c(cc3c1CCC3)CCC2", "note": "(centres undefined)", "Potency": "inactive"}, {"smiles": "Cc1cccc(-c2noc(CN(C(=O)C34CC5CC(CC(C5)C3)C4)C(C)C)n2)c1", "Potency": "inconclusive [inhibitor, single point]"}, {"smiles": "Cc1ccc(NC(=O)C2Cc3ccccc3O/C2=N\\O)cc1C", "note": "(centres undefined)", "Potency": "inactive"}, {"smiles": "Cc1ccc(C(C(=O)NC2CCCC2)N(C(=O)c2csnn2)c2ccccc2)o1", "note": "(centres undefined)", "Potency": "inactive"}, {"smiles": "Clc1ccc(/C=C/c2nc3ccccc3[nH]2)cc1", "Potency": "inconclusive [inhibitor, partial curve]"}, {"smiles": "Cc1ccc2c(c1)N(C(=O)CCC(=O)NC1CCCCCC1)CCO2", "Potency": "inconclusive [inhibitor, single point]"}, {"smiles": "COc1ccc(NC(=O)C(C)N2c3cccc4cccc(c34)S2(=O)=O)c(OC)c1", "note": "(centres undefined)", "Potency": "inconclusive [inhibitor, partial curve, poor fit]"}, {"smiles": "Cc1cccc(OCCn2ccnc2)c1C", "Potency": "inconclusive [inhibitor, partial curve, poor fit]"}]}]}
